In article PMC12136788 one finds binding signal data, which are given here for 22 molecules.

Sequences and labels used below:
T1: UNK ZnF1-3 (human, UniProt Q9C0B0 31-174)
T1 sequence: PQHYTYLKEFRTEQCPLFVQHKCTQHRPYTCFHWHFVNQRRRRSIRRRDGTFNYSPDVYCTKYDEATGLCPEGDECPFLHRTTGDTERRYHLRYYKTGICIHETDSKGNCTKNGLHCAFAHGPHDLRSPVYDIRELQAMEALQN

B1: chr13:29242638:29242639:+_ENSG00000132963_ENST00000380842|hu_hu|FALSE|FALSE (ssRNA)
RNA: GGGAGUUCUACAGUCCGACGAUCGAAUUCCAUCUGUAAUUUUAGCGGAGCAAAUAGACCCUGAAUGUUUCUCAGUGUGGAAAAAUUCAUUUUAUCUUGGUUGAGCUGGAAAUUUUUUUCUGAUAAUUCAAGGGGAUGACUAGGCAACAGAGGAUUGAGCAUCA
B2: chr4:17845017:17845018:+_ENSG00000109805_ENST00000514176|hu_mus|hu_hu_hu_mus_False|1_1 (ssRNA)
RNA: GGGAGUUCUACAGUCCGACGAUCGCUCUCUUAACUUGUAUCUUCAUUAAGGAACUCUGCAAGGUUAAGUUUACUUUUCUGUAGCGCAGCUGUUUUGGCUCGUCUGGGUAAUCUCAUCUUCAUUUCUGAUGGUGGUUUGGAACUCAACAGAGGAUUGAGCAUCA
B3: 34959321_34959441_1601_3pUTR_ENSMUSG00000029106_ENSMUST00000114338|mouse|control|control (ssRNA)
RNA: GGGAGUUCUACAGUCCGACGAUCCUUCCGUUCUGCCCCUCCUCAGAAGCGUCAUCACCCCGGCCAGAGUGCAGCCAUCUUGUCUUCUCUCGCUGCUGCUUCUGAAAACUGUGCCUGAGCGGCGAGCAAGUGCCCGAAUCGCCACAACAGAGGAUUGAGCAUCA
B4: 98547814_98548547_4467_CDS_ENSG00000196367_ENST00000456197|human|control|control (ssRNA)
RNA: GGGAGUUCUACAGUCCGACGAUCCCUUCUCAAAGCUGUACAAGAAAGCAGGAUUCAAGAUAUGCUGCAGAACUUUAGCUUUUAAUUCAUCUCCGAAGUUGGGGUCGUUGAAGUCUACAAAGCGAAAGAACAGGGCACGUUUCUCAACAGAGGAUUGAGCAUCA
B5: chr4:25749455:25749456:-_ENSG00000091490_ENST00000264868|hu_hu|hu_hu_hu_mus_False|8_58 (ssRNA)
RNA: GGGAGUUCUACAGUCCGACGAUCGCACUAUGACCUCUAGAAAAAUCCACAGGGGGAAAAAAUGUAAACCAAUGUACAAAGCUAUUGCCUUCCCUGUGUGUGGAGUGUUUGUCUCAAGGCUCCUUCUUGCCUUAUAAUUUGGGACAACAGAGGAUUGAGCAUCA
B6: chr8:112747817:112747818:+_ENSMUSG00000046441_ENSMUST00000056972|mus_mus|FALSE|FALSE (ssRNA)
RNA: GGGAGUUCUACAGUCCGACGAUCAAUGACCUUUGGUUUUGGCUUAAAGCUGUUCUUUCUUAUUAGUUGAAGUAGUUAUAGCUAGCAAAAGUCAUACAAAAAAAAAAUCUGUAUUUCAUUUCAAUUCAAAGAAAAUGAAGCCACCAACAGAGGAUUGAGCAUCA
B7: chr7:141438946:141438947:+_ENSG00000106028_ENST00000265304|hu_mus|hu_hu_hu_mus_True|1_98 (ssRNA)
RNA: GGGAGUUCUACAGUCCGACGAUCGACGAAAUACCUGACAGGUCUUCCUUCGAAACAUGGCUUCUGUUUUUCUUACAACCUAAUCUUUAGGCUUUUCCUAAAGGAAAGAAAGAAAAGAGAAAAAUGAUAAAUCAAGAACUUCCGCAACAGAGGAUUGAGCAUCA
B8: chr3:179287964:179287965:+_ENSG00000136518_ENST00000429709|hu_hu|hu_hu_hu_mus_True|78_78 (ssRNA)
RNA: GGGAGUUCUACAGUCCGACGAUCCUUGAGUGGUGAGAUGGCCUCCAUGUUCUCCCUCGGAACACGCAGGGCAUUGGUGUCUAUGUAGUAGGUGGGCCCGCCCUGCUUGCCUUUGUCACCAUCAAUCUCCAUCAUUGUACUUCCCAACAGAGGAUUGAGCAUCA
B9: chr13:30959905:30959906:-_ENSMUSG00000021357_ENSMUST00000021785|mus_hu|FALSE|FALSE (ssRNA)
RNA: GGGAGUUCUACAGUCCGACGAUCAUGGAUACUUCCAAACAAGUCAGGGGAAGAAACAUCAACAGAGAGAUGUGUAGUAUCUAUAUCUGCAUCAGGCUUGGUGCUCAACUGUUCCAGACAGUAUAUAAAAACCUGCAUUAUAUUCAACAGAGGAUUGAGCAUCA
B10: chr12:73313434:73313435:-_ENSMUSG00000021087_ENSMUST00000021497|mus_hu|FALSE|FALSE (ssRNA)
RNA: GGGAGUUCUACAGUCCGACGAUCAAAUAUCCUAAGAGUACAAGGAACAGCCUAAAAACAGCUGUUUUAAGGUUUGUCUCUAAGAUUAUGGUACUGGAGGGAGGGGGGAAAGACAAUCAAUUUGCAGUAAUGAGUAAGAAGAGACAACAGAGGAUUGAGCAUCA
B11: chr3:160143891:160143892:+_ENSG00000113810_ENST00000344722|hu_mus|FALSE|FALSE (ssRNA)
RNA: GGGAGUUCUACAGUCCGACGAUCAGUAAGAACGUUAGCUUCCAGUUCUUUAAUUUGUACACACAGAUACUCUUCUUGCUCUGAUAAGCCCUGGAUGCUUGCAGCGAACUUUUCCAGUGUAUUUCUCAUGUCUCGUUCACUGUGCAACAGAGGAUUGAGCAUCA
B12: chr7:54825262:54825263:-_ENSG00000132432_ENST00000352861|hu_hu|hu_hu_hu_mus_False|48_88 (ssRNA)
RNA: GGGAGUUCUACAGUCCGACGAUCCUGCCGGCUGGGCUCCACAAACUUUACCUGAUCAUCCAUGUUUGUUGGAUGGCGGAUUGAGAGUGCCAGGGACCGUAGCUCAGGAGAGAACCGAGCCCAACGGAACCGGAAGCUGGCAACCAACAGAGGAUUGAGCAUCA
B13: chr4:140556289:140556290:+_ENSMUSG00000036622_ENSMUST00000037055|mus_mus|mus_mus_mus_hu_False|28_68 (ssRNA)
RNA: GGGAGUUCUACAGUCCGACGAUCGAUGGAGCUCACCAGGCCCCCUUUUGCCGUGCAGAACCCUGUGCGAGUCACCACUGCCAGGACGUGCGGUCCCACAUAGGCCCGGGCCUGCAGGAUGAGGGUCCCGCAGAAGAGUGUGUGCAACAGAGGAUUGAGCAUCA
B14: chr6:41757443:41757444:+_ENSG00000214736_ENST00000398881|hu_mus|hu_hu_hu_mus_False|58_78 (ssRNA)
RNA: GGGAGUUCUACAGUCCGACGAUCGAACCGUGCAGAGGCAACAUCUCAGCCGACACUGUGGACUCAAGGGGCAGUGGGAAACUAGGCAGGCAAGGAGAGGGAGUCAACUUCAGCUGCCACUCAGGUAGGAUCUUGUGGUCACAGCAACAGAGGAUUGAGCAUCA
B15: chr3:119450855:119450856:-_ENSMUSG00000028134_ENSMUST00000029780|mus_mus|FALSE|FALSE (ssRNA)
RNA: GGGAGUUCUACAGUCCGACGAUCUGUGGUGCCACUAAGAGGUGUAUUUGCUGUCUGGACCGCUGUCACAGCUUGAAGAACUACUUGCGCACGUUGGUUUAAUGUAUUAUCUGUCUUUAGUUCUUUGUGAUUGGAGUACUGGAUCAACAGAGGAUUGAGCAUCA
B16: chr12:56499883:56499884:+_ENSMUSG00000021024_ENSMUST00000021412|mus_hu|FALSE|FALSE (ssRNA)
RNA: GGGAGUUCUACAGUCCGACGAUCGGUAAUGUGGCGGUCAAAACCGGCGCUGGAACCACGGGACAUGUUGGUAGAAGCACUACUUUAAACACAAUCCCUGGGCCCCGUAGCUCCCGCACCAGGCACACAAGCACCUCCCGGAAGCAACAGAGGAUUGAGCAUCA
B17: chr4:17845017:17845018:+_ENSG00000109805_ENST00000514176|hu_mus|hu_hu_hu_mus_False|18_48 (ssRNA)
RNA: GGGAGUUCUACAGUCCGACGAUCGCUCUCUUAACUUGUAUCUUCAUUAAGGAACUCUGCAAGGUUAAGUUUACUUUUCUGUAGCGCGCGGUUUUGGGCUCGUCUGGGUAAUCUCAUUUCAUUUCUGGAUGGUGGUUCAUGAUCCAACAGAGGAUUGAGCAUCA
B18: chr8:27252840:27252841:+_ENSMUSG00000013878_ENSMUST00000014022|mus_mus|FALSE|FALSE (ssRNA)
RNA: GGGAGUUCUACAGUCCGACGAUCCAUGUCACAGCCAUCAAAGACAACCAAAUCAGUAUGAACCUCAGUAGUUAGGCGUCUAAUACACAUUUCCUCAUUCUGCCCAAGGCACGAUGAAUCUGAGCCAAAUAAUGCCAUCUACAACAACAGAGGAUUGAGCAUCA
B19: 63920571_64006334_732_CDS_ENSG00000154001_ENST00000337537|human|control|control (ssRNA)
RNA: GGGAGUUCUACAGUCCGACGAUCGAACAGUUCAGGCUGCUCUGAGGAUGGAACGUCUUUUAGCAGCGGCAGAGGUGUUAACUCAAUAGGCUUGCCUUGAGACCUAAACUGUGAGGAACUUUGCGACCUCUUCUGUCUGGCUUUCAACAGAGGAUUGAGCAUCA
B20: chr3:57646030:57646031:-_ENSMUSG00000027805_ENSMUST00000066882|mus_hu|motif|central (ssRNA)
RNA: GGGAGUUCUACAGUCCGACGAUCUAAAUCUGUACAUUAUCCACAAGGCCCAAACAAUAGAAGCAAAUACUAGAAUGUCCCGGAAGUAGUGCCAUUCGAAAGAAACCCUUAAUAGGUCAGUUAAAAUCCAUCUCACAAUAGCAACAACAGAGGAUUGAGCAUCA
B21: 98563492_98564757_6354_CDS_ENSG00000196367_ENST00000456197|human|control|control (ssRNA)
RNA: GGGAGUUCUACAGUCCGACGAUCACUGGGCAUUUAAUUCAAGGUCUUCCGGAAAGCGUUUUUCUAUGUAAGUCAUCAUCUUCACAAGCAAAAUGGACUUCUCCCGGAGUGUAGGUGUCUGAUUGGCUGCCAUUGGGGAGUUAUCAACAGAGGAUUGAGCAUCA
B22: chr17:32491106:32491107:-_ENSMUSG00000024050_ENSMUST00000163107|mus_hu|motif|central (ssRNA)
RNA: GGGAGUUCUACAGUCCGACGAUCAUCGAUAACCAAAAUGUGGCCACUGAAAAAAGUUAAAAGGUCAAUCAGCUCCUGGCUUCGGGCUGGCCCAGGAUUGCAAAAUAAAAAGAUCCACGUUCCUUAUUCUCUACACAAAACGCGCAACAGAGGAUUGAGCAUCA

The list shows a part of the results.

In this experiment the target is T1, UNK ZnF1-3. Description: nsRBNS (natural sequence RNA bind-n-seq); RBNS binding buffer (assumed for nsRBNS): 25 mM Tris pH 7.5, 150 mM KCl, 3 mM MgCl2, 0.01% Triton X-100, 500 ug/ml BSA, 20 U/ml SUPERase-In, 4 C; UNK is unkempt and MSI1 is Musashi-1; names of the RNAs are library labels; protein concentration not given here; high values mean tight binding.
In the case of B1, the binding signal amounted to 1.3 enrichment R.

Regarding B2, the binding signal was 0.444 enrichment R.

B3: the binding signal came to 1.29 enrichment R.

Take B4: the binding signal was 1.41 enrichment R.

Take B5: the binding signal is 0.913 enrichment R.

On to B6, for which the binding signal is 0.679 enrichment R.

Molecule B7 gave a binding signal of 0.779 enrichment R.

Regarding B8, the binding signal stood at 0.398 enrichment R.

B9: the binding signal turned out to be 0.968 enrichment R.

On to B10, for which the binding signal is 2.1 enrichment R.

The molecule B11 had a binding signal of 0.409 enrichment R.

For the molecule B12, the binding signal is 1.07 enrichment R.

With B13, the binding signal was 0.723 enrichment R.

On to B14, for which the binding signal is 1.97 enrichment R.

B15 returned a binding signal of 0.675 enrichment R.

B16 gave a binding signal of 0.659 enrichment R.

With B17, the binding signal stood at 0.427 enrichment R.

B18 showed a binding signal of 1.11 enrichment R.

As for B19, the binding signal was 1.07 enrichment R.

B20 returned a binding signal of 1.37 enrichment R.

Take B21: the binding signal was found to be 1.75 enrichment R.

Take B22: the binding signal worked out at 1.41 enrichment R.
